Laboratory results reported in PubChem BioAssay AID1745853 (National Center for Advancing Translational Sciences (NCATS), 2022).
Some of the results follow. Further columns of the screen follow, without active or inactive calls.

Columns and labels:
Test in all cases: Primary Screen for Target Class Profiling of Small Molecule Inhibitors of Methyltransferases
[1] = molecular target: Glycine N-methyltransferase (Homo sapiens) (UniProt Q14749); details: purified enzyme, MTase-Glo SAH luminescence; measured here: GNMT inhibition; at 40 µM; stronger effect = lower value
Procedure, shortened: (§1)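 Each enzyme was assayed with SAM and its substrate. SAH formation detected by MTase-Glo luminescence; single-point 40 uM screen[…].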

[2] = molecular target: Histamine N-methyltransferase (Homo sapiens) (UniProt P50135); details: purified enzyme, MTase-Glo SAH luminescence; measured here: HNMT inhibition; at 40 µM; stronger effect = lower value
Procedure, shortened: as §1

[3] = molecular target: Guanidinoacetate N-methyltransferase (Homo sapiens) (UniProt Q14353); details: purified enzyme, MTase-Glo SAH luminescence; measured here: GAMT inhibition; at 40 µM; stronger effect = lower value
Procedure, shortened: as §1

[4] = molecular target: Nicotinamide N-methyltransferase (Homo sapiens) (UniProt P40261); details: purified enzyme, MTase-Glo SAH luminescence; measured here: NNMT inhibition; at 40 µM; stronger effect = lower value
Procedure, shortened: as §1

[5] = molecular target: Phenylethanolamine N-methyltransferase (Homo sapiens) (UniProt P11086); details: purified enzyme, MTase-Glo SAH luminescence; measured here: PNMT inhibition; at 40 µM; stronger effect = lower value
Procedure, shortened: as §1
On the % scale 0 is the no-effect control and ±100 the full control effect.

| Compound | activity change, negative = inhibition [1] [%] | activity change, negative = inhibition [2] [%] | activity change, negative = inhibition [3] [%] | activity change, negative = inhibition [4] [%] | activity change, negative = inhibition [5] [%] |
| --- | --- | --- | --- | --- | --- |
| CCCCS(=O)(=O)NC(Cc1ccc(OCCCCC2CCNCC2)cc1)C(=O)O (configuration not stated) | 3.14 | -5.15 |  |  |  |
| CCOC(=O)c1cccc(Nc2cc(C)nc3ccc(C)cc23)c1 | -1.66 | -77.5 | 0 | -1.34 | -0.227 |
| COc1ccc(C(=O)N2CCC(O)(CO)CC2)c(OC)c1OC | -2.46 | 0.818 | 1.02 | 2.27 | 1.79 |
| Cc1ccc(Cn2c(=O)c3ccccc3n3c(CCC(=O)NCCCN4CCOCC4)nnc23)cc1 | -3.55 | -3.46 | 0 | 7.63 | -7.03 |
| Cc1noc(-c2ccncc2)c1C(=O)NCCCCc1ccccc1 | -6.19 | 0.612 | -2.71 | -8.04 | -3.15 |
| C=Cc1ccc(Cn2nc3n(CCC)c(=O)c4ccc(C(=O)NC5CCCCC5)cc4n3c2=O)cc1 | 1.73 | 7.71 | 0 | -1.54 | -7.29 |
| CN(CC(=O)N1CCN(Cc2ccccc2)CC1)S(=O)(=O)c1ccc2[nH]c3c(c2c1)CCCC3 | -1.71 | -0.766 | 0 | 0.698 | 1.75 |
| Cn1c(=O)n(C)c2cc(S(=O)(=O)Nc3ccc(F)c(F)c3)ccc21 | -4.54 | 3.38 | 4.33 | 1.96 | -3.24 |
| CC1CCCC(NC(=O)C2(C)Cn3c(cc4occc43)C(=O)N2Cc2ccccc2)C1C (configuration not stated) | 0.694 | -3.59 | 4.52 | -5.01 | -3.93 |
| CCCn1c(=O)c2ccc(C(=O)NCC(C)C)cc2n2c(=O)[nH]nc12 | -1.71 | 4.08 | 0 | -1.43 | -4.87 |
| O=C(NC1CCCCC1)N[C@H]1C[C@H]2C(=O)N3CCC[C@@H]3C(=O)N2C1 | -3 | -1.88 | -4.93 | -3.37 | -0.599 |
| COc1ccc2cc(OCC3(C(=O)O)CN(C(=O)c4ccc(F)cc4)C3)ccc2c1 | -42.8 | 7.85 | -4.83 | -24 | -1.21 |
| O=C1Cc2c([nH]c3ccc(Br)cc23)-c2ncccc2N1 | -8.59 | 1.5 | -15.5 | -24.8 | -61 |
| COCCN1C(=O)c2ccc(-c3ccco3)n2CC1(C)C(=O)NC1CCCCCCC1 (configuration not stated) | -12.6 | -5.57 | -1.64 | -17.9 | -8.75 |
| CC1(C(=O)NC2CCCCC2)Cn2c(ccc2-c2ccco2)C(=O)N1Cc1cccc(Cl)c1 (configuration not stated) | -13.2 | -11.9 | 0.729 | -21.9 | -9.79 |
| Cn1c(CN2CCOCC2)nnc1C1CCCN(C(=O)c2cc[nH]c2)C1 (configuration not stated) | -0.684 | 1.22 | 0.977 | -1.6 | 2.82 |
| CC(C)NC(=O)N(C1CCOCC1)C1CNC1 | -6.02 | -1.76 | -5.57 | -6.6 | -1.25 |
| COc1ccc(CCNC(=O)C(C)n2ccc3cc(S(=O)(=O)N4CCCC4)ccc32)c(OC)c1 (configuration not stated) | 2.72 | -5.58 | 4.47 | -6.32 | -1.02 |
